Measurements as given in patent US8415310B2, “Isoxazoline derivatives as antiparasitic agents” (AH USA 42 LLC, priority 2010, dated 2013).
Some of these results come from one statement about several compounds together.

Tests used:
Type in all cases: in vivo
[1] = system: fleas, ticks, flies, and or sea lice; assay: at least one of the bio-assays (summary statement); conditions: assay not specified
Ctenocephalides felis = assay: Flea (Ctenocephalides felis) Membrane Feed Assay-Adult; conditions: adult fleas fed on treated citrated bovine blood approximately 2 hours; knockdown and/or death at approximately 2 and 24 hours
Haematobia irritans = assay: Horn Fly (Haematobia irritans) Feed Assay; conditions: horn flies fed on treated citrated bovine blood; knockdown and mortality at approximately 2 and 24 hours

Compound: O=C(C1CC1)N1CC(O)(c2ccc(C3=NOC(c4cc(Cl)c(Cl)c(C(F)(F)F)c4)(C(F)(F)F)C3)cc2)C1 (racemic) [Example 24, Cyclopropyl(3-(4-(5-(3,4-dichloro-5-(trifluoromethyl)phenyl)-5-(trifluoromethyl)-4,5-dihydroisoxazol-3-yl)phenyl)-3-hydroxyazetidin-1-yl)methanone]
- ED^100, LD^100, LD^90, and/or ED^80 value within at least one of the bio-assays [1]: ≤ 0.1 μg/mL or μg/fly
- lethal dose 90% (LD^90) (Ctenocephalides felis): ≤ 3 µg/mL

Compound: O=C(C1CCC1)N1CC(F)(c2ccc(C3=NOC(c4cc(C(F)(F)F)cc(C(F)(F)F)c4)(C(F)(F)F)C3)cc2)C1 (stereo not shown) [Example 47, 5-[3,5-bis(trifluoromethyl)phenyl]-3-{4-[1-(cyclobutylcarbonyl)-3-fluoroazetidin-3-yl]phenyl}-5-(trifluoromethyl)-4,5-dihydroisoxazole]
- ED^100, LD^100, LD^90, and/or ED^80 value within at least one of the bio-assays [1]: ≤ 0.01 μg/mL or μg/fly
- lethal dose 90% (LD^90) (Ctenocephalides felis): ≤ 1 µg/mL

Compound: CCCC(=O)N1CC(F)(c2ccc(C3=NOC(c4cc(Cl)cc(C(F)(F)F)c4)(C(F)(F)F)C3)cc2)C1 (stereo not shown) [Example 50, 3-[4-(1-butyryl-3-fluoroazetidin-3-yl)phenyl]-5-[3-chloro-5-(trifluoromethyl)phenyl]-5-(trifluoromethyl)-4,5-dihydroisoxazole]
- ED^100, LD^100, LD^90, and/or ED^80 value within at least one of the bio-assays [1]: ≤ 0.01 μg/mL or μg/fly
- lethal dose 90% (LD^90) (Ctenocephalides felis): ≤ 1 µg/mL

Compound: CC(=O)N1CC(F)(c2ccc(C3=NOC(c4cc(Cl)cc(C(F)(F)F)c4)(C(F)(F)F)C3)cc2)C1 (stereo not shown) [Example 52, 3-[4-(1-acetyl-3-fluoroazetidin-3-yl)phenyl]-5-[3-chloro-5-(trifluoromethyl)phenyl]-5-(trifluoromethyl)-4,5-dihydroisoxazole]
- ED^100, LD^100, LD^90, and/or ED^80 value within at least one of the bio-assays [1]: ≤ 0.01 μg/mL or μg/fly
- lethal dose 90% (LD^90) (Ctenocephalides felis): ≤ 1 µg/mL

Compound: CCC(=O)N1CC(O)(c2ccc(C3=NOC(c4cc(Cl)c(F)c(Cl)c4)(C(F)(F)F)C3)cc2)C1 (stereo not shown) [Example 68, 3-{4-[5-(3,5-dichloro-4-fluorophenyl)-5-(trifluoromethyl)-4,5-dihydroisoxazol-3-yl]phenyl}-1-propionylazetidin-3-ol]
- ED^100, LD^100, LD^90, and/or ED^80 value within at least one of the bio-assays [1]: ≤ 0.03 µg/mL
- lethal dose 90% (LD^90) (Ctenocephalides felis): ≤ 1 µg/mL

Compound: O=C(c1cc[nH]n1)N1CC(F)(c2ccc(C3=NOC(c4cc(Cl)c(F)c(Cl)c4)(C(F)(F)F)C3)cc2)C1 (stereo not shown) [Example 70, 5-(3,5-dichloro-4-fluorophenyl)-3-{-4-[3-fluoro-1-(1H-pyrazol-3-ylcarbonyl)azetidin-3-yl]phenyl}-5-(trifluoromethyl)-4,5-dihydroisoxazole]
- ED^100, LD^100, LD^90, and/or ED^80 value within at least one of the bio-assays [1]: ≤ 0.03 µg/mL
- lethal dose 90% (LD^90) (Ctenocephalides felis): ≤ 3 µg/mL

Compound: CC(C)C(=O)N1CC(F)(c2ccc(C3=NOC(c4cc(Cl)c(Cl)c(C(F)(F)F)c4)(C(F)(F)F)C3)cc2)C1 (stereo not shown) [Example 76, 5-[3,4-dichloro-5-(trifluoromethyl)phenyl]-3-[4-(3-fluoro-1-isobutyrylazetidin-3-yl)phenyl]-5-(trifluoromethyl)-4,5-dihydroisoxazole]
- ED^100, LD^100, LD^90, and/or ED^80 value within at least one of the bio-assays [1]: ≤ 0.03 µg/mL
- lethal dose 90% (LD^90) (Ctenocephalides felis): ≤ 1 µg/mL

Compound: CC(C)C(=O)N1CC(c2ccc(C3=NOC(c4cc(Cl)c(Cl)c(Cl)c4)(C(F)(F)F)C3)cc2)C1 (stereo not shown) [Example 89, 2-methyl-1-(3-(4-(5-(3,4,5-trichlorophenyl)-5-(trifluoromethyl)-4,5-dihydroisoxazol-3-yl)phenyl)azetidin-1-yl)propan-1-one]
- ED^100, LD^100, LD^90, and/or ED^80 value within at least one of the bio-assays [1]: ≤ 1 μg/mL or μg/fly
- lethal dose 90% (LD^90) (Ctenocephalides felis): ≤ 3 µg/mL

Compound: CS(=O)(=O)CCC(=O)N1CC(F)(c2ccc(C3=NOC(c4cc(Cl)c(F)c(Cl)c4)(C(F)(F)F)C3)cc2)C1 (stereo not shown) [Example 179, 1-(3-{4-[5-(3,5-Dichloro-4-fluoro-phenyl)-5-trifluoromethyl-4,5-dihydro-isoxazol-3-yl]-phenyl}-3-fluoro-azetidin-1-yl)-3-methanesulfonyl-propan-1-one]
- lethal dose 90% (LD^90) (Haematobia irritans): ≤ 3 µg/mL
- lethal dose 90% (LD^90) (Ctenocephalides felis): ≤ 3 µg/mL

Compound: O=C(NC1CC1)N1CC(c2ccc(C3=NOC(c4cc(Cl)c(Cl)c(Cl)c4)(C(F)(F)F)C3)cc2)C1 (stereo not shown) [Example 187, N-cyclopropyl-3-{4-[5-(3,4,5-trichlorophenyl)-5-(trifluoromethyl)-4,5-dihydroisoxazol-3-yl]phenyl}azetidine-1-carboxamide]
- lethal dose 90% (LD^90) (Haematobia irritans): ≤ 3 µg/mL
- lethal dose 90% (LD^90) (Ctenocephalides felis): ≤ 3 µg/mL

Compound: CNC(=O)N1CC(c2ccc(C3=NOC(c4cc(Cl)c(Cl)c(C(F)(F)F)c4)(C(F)(F)F)C3)cc2)C1 (stereo not shown) [Example 193, 3-(4-{5-[3,4-dichloro-5-(trifluoromethyl)phenyl]-5-(trifluoromethyl)-4,5-dihydroisoxazol-3-yl}phenyl)-N-methylazetidine-1-carboxamide]
- lethal dose 90% (LD^90) (Haematobia irritans): ≤ 3 µg/mL
- lethal dose 90% (LD^90) (Ctenocephalides felis): ≤ 3 µg/mL

Compound: O=C(NC1CC1)N1CC(c2ccc(C3=NOC(c4cc(Cl)cc(C(F)(F)F)c4)(C(F)(F)F)C3)cc2)C1 (stereo not shown) [Example 197, 3-(4-{5-[3-chloro-5-(trifluoromethyl)phenyl]-5-(trifluoromethyl)-4,5-dihydroisoxazol-3-yl}phenyl)-N-cyclopropylazetidine-1-carboxamide]
- lethal dose 90% (LD^90) (Haematobia irritans): ≤ 3 µg/mL
- lethal dose 90% (LD^90) (Ctenocephalides felis): ≤ 1 µg/mL

Compound: O=C(NC1CC1)N1CC(c2ccc(C3=NOC(c4cc(Cl)c(Cl)c(C(F)(F)F)c4)(C(F)(F)F)C3)cc2)C1 (stereo not shown) [Example 199, N-cyclopropyl-3-(4-{5-[3,4-dichloro-5-(trifluoromethyl)phenyl]-5-(trifluoromethyl)-4,5-dihydroisoxazol-3-yl}phenyl)azetidine-1-carboxamide]
- lethal dose 90% (LD^90) (Haematobia irritans): ≤ 3 µg/mL
- lethal dose 90% (LD^90) (Ctenocephalides felis): ≤ 1 µg/mL

Compound: O=C(NCC(F)(F)F)N1CC(F)(c2ccc(C3=NOC(c4cc(Cl)c(Cl)c(C(F)(F)F)c4)(C(F)(F)F)C3)cc2)C1 (stereo not shown) [Example 200, 3-(4-{5-[3,4-dichloro-5-(trifluoromethyl)phenyl]-5-(trifluoromethyl)-4,5-dihydroisoxazol-3-yl}phenyl)-3-fluoro-N-(2,2,2-trifluoroethyl)azetidine-1-carboxamide]
- lethal dose 90% (LD^90) (Haematobia irritans): ≤ 1 µg/mL
- lethal dose 90% (LD^90) (Ctenocephalides felis): ≤ 3 µg/mL

Compound: O=C(NC1COC1)N1CC(F)(c2ccc(C3=NOC(c4cc(Cl)c(Cl)c(C(F)(F)F)c4)(C(F)(F)F)C3)cc2)C1 (stereo not shown) [Example 204, 3-(4-{5-[3,4-dichloro-5-(trifluoromethyl)phenyl]-5-(trifluoromethyl)-4,5-dihydroisoxazol-3-yl}phenyl)-3-fluoro-N-oxetan-3-ylazetidine-1-carboxamide]
- lethal dose 90% (LD^90) (Haematobia irritans): ≤ 3 µg/mL
- lethal dose 90% (LD^90) (Ctenocephalides felis): ≤ 3 µg/mL

Compound: CCC(=O)N1CC(F)(c2ccc(C3=NOC(c4cc(Cl)c(F)c(Cl)c4)(C(F)(F)F)C3)cc2C#N)C1 (stereo not shown) [Example 209, 5-[5-(3,5-dichloro-4-fluorophenyl)-5-(trifluoromethyl)-4,5-dihydroisoxazol-3-yl]-2-(3-fluoro-1-propionylazetidin-3-yl)benzonitrile]
- lethal dose 90% (LD^90) (Haematobia irritans): ≤ 0.3 µg/mL
- lethal dose 90% (LD^90) (Ctenocephalides felis): ≤ 1 µg/mL

Compound: N#Cc1cc(C2=NOC(c3cc(Cl)c(F)c(Cl)c3)(C(F)(F)F)C2)ccc1C1(F)CN(C(=O)CC2CC2)C1 (stereo not shown) [Example 216, 2-[1-(cyclopropylacetyl)-3-fluoroazetidin-3-yl]-5-[5-(3,5-dichloro-4-fluorophenyl)-5-(trifluoromethyl)-4,5-dihydroisoxazol-3-yl]benzonitrile]
- lethal dose 90% (LD^90) (Haematobia irritans): ≤ 3 µg/mL
- lethal dose 90% (LD^90) (Ctenocephalides felis): ≤ 0.3 µg/mL

Compound: O=C(C1CC1)N1CC(F)(c2ccc(C3=NOC(c4cc(Cl)c(Cl)c(Cl)c4)(C(F)(F)F)C3)cn2)C1 (stereo not shown) [Example 219, 2-[1-(cyclopropylcarbonyl)-3-fluoroazetidin-3-yl]-5-[5-(3,4,5-trichlorophenyl)-5-(trifluoromethyl)-4,5-dihydroisoxazol-3-yl]pyridine]
- lethal dose 90% (LD^90) (Haematobia irritans): ≤ 3 µg/mL
- lethal dose 90% (LD^90) (Ctenocephalides felis): ≤ 1 µg/mL

Compound: O=C(C1C[S+]([O-])C1)N1CC(F)(c2ccc(C3=NOC(c4cc(Cl)c(F)c(Cl)c4)(C(F)(F)F)C3)cc2)C1 (stereo not shown) [Example 220, (3-(4-(5-(3,5-dichloro-4-fluorophenyl)-5-(trifluoromethyl)-4,5-dihydroisoxazol-3-yl)phenyl)-3-fluoroazetidin-1-yl)(1-oxidothietan-3-yl)methanone]
- lethal dose 90% (LD^90) (Haematobia irritans): ≤ 1 µg/mL
- lethal dose 90% (LD^90) (Ctenocephalides felis): ≤ 1 µg/mL

Compound: O=C(C1CS(=O)(=O)C1)N1CC(F)(c2ccc(C3=NOC(c4cc(Cl)c(F)c(Cl)c4)(C(F)(F)F)C3)cc2)C1 (stereo not shown) [Example 221, (3-(4-(5-(3,5-dichloro-4-fluorophenyl)-5-(trifluoromethyl)-4,5-dihydroisoxazol-3-yl)phenyl)-3-fluoroazetidin-1-yl)(1,1-dioxidothietan-3-yl)methanone]
- lethal dose 90% (LD^90) (Haematobia irritans): ≤ 0.3 µg/mL
- lethal dose 90% (LD^90) (Ctenocephalides felis): ≤ 0.3 µg/mL

Compound: CC(C)C(=S)N1CC(F)(c2ccc(C3=NOC(c4cc(Cl)c(F)c(Cl)c4)(C(F)(F)F)C3)cc2)C1 (stereo not shown) [Example 222, 1-(3-(4-(5-(3,5-dichloro-4-fluorophenyl)-5-(trifluoromethyl)-4,5-dihydroisoxazol-3-yl)phenyl)-3-fluoroazetidin-1-yl)-2-methylpropane-1-thione]
- lethal dose 90% (LD^90) (Haematobia irritans): ≤ 3 µg/mL
- lethal dose 90% (LD^90) (Ctenocephalides felis): ≤ 1 µg/mL

Compound: CS(=O)(=O)CC(=O)N1CC(F)(c2ccc(C3=NOC(c4cc(Cl)c(Cl)c(Cl)c4)(C(F)(F)F)C3)cc2)C1 (stereo not shown) [Example 224]
- lethal dose 90% (LD^90) (Haematobia irritans): ≤ 1 µg/mL
- lethal dose 90% (LD^90) (Ctenocephalides felis): ≤ 3 µg/mL

Compound: CS(=O)(=O)CC(=O)N1CC(F)(c2ccc(C3=NOC(c4cc(Cl)c(Cl)c(C(F)(F)F)c4)(C(F)(F)F)C3)cc2)C1 (stereo not shown) [Example 225, 1-(3-{4-[5-(3,4-Dichloro-5-trifluoromethyl-phenyl)-5-trifluoromethyl-4,5-dihydro-isoxazol-3-yl]-phenyl}-3-fluoro-azetidin-1-yl)-2-methanesulfonyl-ethanone]
- lethal dose 90% (LD^90) (Haematobia irritans): ≤ 3 µg/mL
- lethal dose 90% (LD^90) (Ctenocephalides felis): ≤ 3 µg/mL
